# Data: the supplement of paper PMC8728848
# Some of the results follow.
# B1: SLR2P2A3 (Tachypleus tridentatus), TAL2_TACTR (protein)
# chain: MEKGTPPTHDSDNWMGRAKKIGNGGWNQFQFLFFDPNGYLYAVSKDKLYKASPPQSDTDNWIARATEIGSGGWSGSKFLFFHPNGYLYAVHGQRLYKALPPVSNQD
# Legend:
# Experiment in all cases: glycan array binding signal (z-score within array); higher = stronger binding
# Conditions in all cases: glycan notation: IUPAC condensed, linker removed
# [1] = target: Man(a1-3)[Man(a1-6)]Man(a1-6)[Man(a1-2)Man(a1-3)]Man(b1-4)GlcNAc(b1-4)GlcNAc
# Procedure, shortened: (§1)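 From the Consortium for Functional Glycomics database, 3228 arrays were curated, keeping only those whose protein sequence was available. Binding is given as a within-array Z-score averaged across arrays sharing a protein sequence and across linkers. Negative Z-scores can be read as non-binding.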
# [2] = target: Man(a1-3)[Man(a1-6)]Man(a1-6)[Man(a1-3)]Man
# Procedure, shortened: as §1
# [3] = target: Man(a1-3)[Man(a1-6)]Man(a1-6)[Man(a1-3)]Man(b1-4)GlcNAc(b1-4)GlcNAc
# Procedure, shortened: as §1
# [4] = target: Man(a1-3)[Man(a1-6)]Man(b1-4)GlcNAc(b1-4)GlcNAc
# Procedure, shortened: as §1
# Man(a1-6)Man = target: Man(a1-6)Man
# Procedure, shortened: as §1
# Man(b1-4)GlcNAc = target: Man(b1-4)GlcNAc
# Procedure, shortened: as §1
# Neu5Ac(a2-3)Gal = target: Neu5Ac(a2-3)Gal
# Procedure, shortened: as §1
# [5] = target: Neu5Ac(a2-3)Gal(b1-3)GalNAc
# Procedure, shortened: as §1
# [6] = target: Neu5Ac(a2-3)Gal(b1-3)GalNAc(b1-3)Gal(a1-4)Gal(b1-4)Glc
# Procedure, shortened: as §1
# [7] = target: Neu5Ac(a2-3)Gal(b1-3)GalNAc(b1-3)Gal(b1-4)GlcNAc
# Procedure, shortened: as §1
# [8] = target: Neu5Ac(a2-3)Gal(b1-3)GalNAc(b1-4)[Neu5Ac(a2-3)]Gal(b1-4)Glc
# Procedure, shortened: as §1
# [9] = target: Neu5Ac(a2-3)Gal(b1-3)GalNAc6S
# Procedure, shortened: as §1
# [10] = target: Neu5Ac(a2-3)Gal(b1-3)GlcNAc
# Procedure, shortened: as §1
# [11] = target: Neu5Ac(a2-3)Gal(b1-3)GlcNAc(b1-3)Gal(b1-3)GlcNAc
# Procedure, shortened: as §1
# [12] = target: Neu5Ac(a2-3)Gal(b1-3)GlcNAc6S
# Procedure, shortened: as §1
# [13] = target: Neu5Ac(a2-3)Gal(b1-3)[Fuc(a1-4)]GlcNAc
# Procedure, shortened: as §1
# [14] = target: Neu5Ac(a2-3)Gal(b1-3)[Fuc(a1-4)]GlcNAc(b1-3)Gal(b1-4)[Fuc(a1-3)]GlcNAc
# Procedure, shortened: as §1
# [15] = target: Neu5Ac(a2-3)Gal(b1-3)[Neu5Ac(a2-3)Gal(b1-4)]GlcNAc
# Procedure, shortened: as §1
# [16] = target: Neu5Ac(a2-3)Gal(b1-3)[Neu5Ac(a2-6)]GalNAc
# Procedure, shortened: as §1
# Neu5Ac(a2-3)Gal(b1-4)Glc = target: Neu5Ac(a2-3)Gal(b1-4)Glc
# Procedure, shortened: as §1
# [17] = target: Neu5Ac(a2-3)Gal(b1-4)GlcNAc
# Procedure, shortened: as §1
# [18] = target: Neu5Ac(a2-3)Gal(b1-4)GlcNAc(b1-2)Man(a1-3)[GlcNAc(b1-2)Man(b1-4)GlcNAc(b1-2)Man(a1-6)]Man(b1-4)GlcNAc(b1-4)GlcNAc
# Procedure, shortened: as §1
# [19] = target: Neu5Ac(a2-3)Gal(b1-4)GlcNAc(b1-2)Man(a1-3)[Neu5Ac(a2-6)Gal(b1-4)GlcNAc(b1-2)Man(a1-6)]Man(b1-4)GlcNAc(b1-4)GlcNAc
# Procedure, shortened: as §1
# [20] = target: Neu5Ac(a2-3)Gal(b1-4)GlcNAc(b1-3)Gal(b1-3)GlcNAc
# Procedure, shortened: as §1
# [21] = target: Neu5Ac(a2-3)Gal(b1-4)GlcNAc(b1-3)Gal(b1-4)GlcNAc
# Procedure, shortened: as §1
# [22] = target: Neu5Ac(a2-3)Gal(b1-4)GlcNAc(b1-3)Gal(b1-4)GlcNAc(b1-3)Gal(b1-4)GlcNAc
# Procedure, shortened: as §1
# [23] = target: Neu5Ac(a2-3)Gal(b1-4)GlcNAc(b1-3)Gal(b1-4)[Fuc(a1-3)]GlcNAc
# Procedure, shortened: as §1
# [24] = target: Neu5Ac(a2-3)Gal(b1-4)GlcNAc(b1-6)[Gal(b1-3)]GalNAc
# Procedure, shortened: as §1
# [25] = target: Neu5Ac(a2-3)Gal(b1-4)GlcNAc(b1-6)[Neu5Ac(a2-3)Gal(b1-3)]GalNAc
# Procedure, shortened: as §1
# [26] = target: Neu5Ac(a2-3)Gal(b1-4)GlcNAc6S
# Procedure, shortened: as §1
# [27] = target: Neu5Ac(a2-3)Gal(b1-4)[Fuc(a1-3)]GlcNAc
# Procedure, shortened: as §1
# [28] = target: Neu5Ac(a2-3)Gal(b1-4)[Fuc(a1-3)]GlcNAc(b1-3)Gal
# Procedure, shortened: as §1
# [29] = target: Neu5Ac(a2-3)Gal(b1-4)[Fuc(a1-3)]GlcNAc(b1-3)Gal(b1-4)GlcNAc
# Procedure, shortened: as §1
# [30] = target: Neu5Ac(a2-3)Gal(b1-4)[Fuc(a1-3)]GlcNAc(b1-3)Gal(b1-4)[Fuc(a1-3)]GlcNAc(b1-3)Gal(b1-4)[Fuc(a1-3)]GlcNAc
# Procedure, shortened: as §1
# [31] = target: Neu5Ac(a2-3)Gal(b1-4)[Fuc(a1-3)]GlcNAc(b1-6)[Gal(b1-3)]GalNAc
# Procedure, shortened: as §1
# [32] = target: Neu5Ac(a2-3)Gal(b1-4)[Fuc(a1-3)]GlcNAc6S
# Procedure, shortened: as §1
# [33] = target: Neu5Ac(a2-3)Gal6S(b1-4)GlcNAc
# Procedure, shortened: as §1
binder,measurement,setting,value
B1,glycan array binding signal (z-score),[1],0.109
same,glycan array binding signal (z-score),[2],0.265
same,glycan array binding signal (z-score),[3],-0.618
same,glycan array binding signal (z-score),[4],-0.255
same,glycan array binding signal (z-score),Man(a1-6)Man,-0.035
same,glycan array binding signal (z-score),Man(b1-4)GlcNAc,-0.196
same,glycan array binding signal (z-score),Neu5Ac(a2-3)Gal,-0.353
same,glycan array binding signal (z-score),[5],-0.196
same,glycan array binding signal (z-score),[6],-0.324
same,glycan array binding signal (z-score),[7],-0.576
same,glycan array binding signal (z-score),[8],-0.213
same,glycan array binding signal (z-score),[9],-0.653
same,glycan array binding signal (z-score),[10],0.037
same,glycan array binding signal (z-score),[11],-0.591
same,glycan array binding signal (z-score),[12],-0.354
same,glycan array binding signal (z-score),[13],-0.514
same,glycan array binding signal (z-score),[14],-0.27
same,glycan array binding signal (z-score),[15],-0.467
same,glycan array binding signal (z-score),[16],-0.3
same,glycan array binding signal (z-score),Neu5Ac(a2-3)Gal(b1-4)Glc,-0.109
same,glycan array binding signal (z-score),[17],-0.372
same,glycan array binding signal (z-score),[18],-0.371
same,glycan array binding signal (z-score),[19],-0.104
same,glycan array binding signal (z-score),[20],-0.517
same,glycan array binding signal (z-score),[21],-0.386
same,glycan array binding signal (z-score),[22],-0.48
same,glycan array binding signal (z-score),[23],-0.426
same,glycan array binding signal (z-score),[24],0.321
same,glycan array binding signal (z-score),[25],0.065
same,glycan array binding signal (z-score),[26],0.669
same,glycan array binding signal (z-score),[27],-0.063
same,glycan array binding signal (z-score),[28],-0.555
same,glycan array binding signal (z-score),[29],-0.473
same,glycan array binding signal (z-score),[30],-0.46
same,glycan array binding signal (z-score),[31],-0.593
same,glycan array binding signal (z-score),[32],0.206
same,glycan array binding signal (z-score),[33],-0.562
